Test results published in the supplement of paper PMC7125110.
± gives the standard error. This sample is rich in variants without activity.

B1: glmS ribozyme (parent)
chain: AUAAAAGCGCCAGAACUACAGAAAUGUAGUUGACGAGGAGGAGGUUUAUCGAAUUUUCGGCGGAUGCCUCCAAA

Assays:
Conditions in all cases: with glucosamine-6-phosphate
[1] = variants of: B1; test: self-cleavage kobs at 40 uM GlcN6P; higher = faster cleavage; RNA array
In short: (§1)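 Barcoded ribozyme variants on sequenced MiSeq chips were transcribed in situ by E. coli RNA polymerase and followed at 37 °C through a hybridised Cy3 probe. Glucosamine-6-phosphate at 40 μM to 10 mM in HEPES/KCl/Mg(OAc)2 buffer was flowed in, and tiles were imaged over ~14 h. Signals were normalised to baseline and to non-cleaving reference variants, and per-tile medians were fit to one- or two-exponential decays to give kobs. Weighted Michaelis–Menten fits across concentrations gave kcat and KM.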

[2] = variants of: B1; test: self-cleavage kobs at 640 uM GlcN6P; higher = faster cleavage; RNA array
In short: as §1

[3] = variants of: B1; test: self-cleavage kobs at 160 uM GlcN6P; higher = faster cleavage; RNA array
In short: as §1

[4] = variants of: B1; test: self-cleavage kobs at 2500 uM GlcN6P; higher = faster cleavage; RNA array
In short: as §1

[5] = variants of: B1; test: self-cleavage kobs at 10000 uM GlcN6P; higher = faster cleavage; RNA array
In short: as §1

[6] = variants of: B1; test: kcat; higher = faster cleavage; RNA array
In short: as §1

Variant	self-cleavage kobs at 40 uM GlcN6P [1] [s⁻¹]	self-cleavage kobs at 640 uM GlcN6P [2] [s⁻¹]	self-cleavage kobs at 160 uM GlcN6P [3] [s⁻¹]	self-cleavage kobs at 2500 uM GlcN6P [4] [s⁻¹]	self-cleavage kobs at 10000 uM GlcN6P [5] [s⁻¹]	kcat [6] [s⁻¹]
A6U G29U G38A C58A	< 1e-05					
G7C U46G C71U	< 1e-05					
C8G U56G	< 1e-05	< 1e-05	< 1e-05	< 1e-05		
C8G G44C U46A U56A U57A G63A	< 1e-05					
C10G A33G G40A A42U	< 1e-05					
C11G G35C G37U G62U	< 1e-05	< 1e-05	< 1e-05		< 1e-05	
C8G A14G A42U A52C A64C	< 1e-05	< 1e-05		< 1e-05		
A6C C10G A36G G37A U56A C70A	< 1e-05				< 1e-05	
G9U G32U G41U A53C	< 1e-05				< 1e-05	
A6C U65A	< 1e-05		< 1e-05			
C8G A33C	< 1e-05	< 1e-05	< 1e-05	< 1e-05	< 1e-05	
A6C G32U G44C C68G	< 1e-05			< 1e-05	< 1e-05	
G9A U46A	< 1e-05	< 1e-05			< 1e-05	
A6G G29U G41C A42C A48C C61A C67G	< 1e-05			< 1e-05	< 1e-05	
A6U G60U C70U	< 1e-05				< 1e-05	
G7A G51A	< 1e-05			< 1e-05		
A6G A42U A64G	< 1e-05	< 1e-05		< 1e-05	< 1e-05	
C10A C16A	< 1e-05					
G7U U30C U46A C68A	< 1e-05					
G9A A15G U30C	< 1e-05					
C11A A48U A52U	< 1e-05				< 1e-05	
C11G G60A	< 1e-05		< 1e-05	< 1e-05	< 1e-05	
C11G G60C	< 1e-05	< 1e-05	< 1e-05		< 1e-05	
C11U C50G U65A C68A	8.61e-05 ± 2.8e-05					

Variant	self-cleavage kobs at 40 uM GlcN6P [1] [s⁻¹]	self-cleavage kobs at 640 uM GlcN6P [2] [s⁻¹]	self-cleavage kobs at 160 uM GlcN6P [3] [s⁻¹]	self-cleavage kobs at 2500 uM GlcN6P [4] [s⁻¹]	self-cleavage kobs at 10000 uM GlcN6P [5] [s⁻¹]	kcat [6] [s⁻¹]
A6G A33G A48G A64U	< 1e-05					
C10U G40U A48U	< 1e-05	< 1e-05			< 1e-05	
C10G U30C A33C U55A	< 1e-05				< 1e-05	
U65C C68G	< 1e-05	< 1e-05			< 1e-05	< 1e-05
A6C G59C	< 1e-05	< 1e-05		< 1e-05	< 1e-05	
A6G C16U G29C	< 1e-05					
C8U G9A A15C A36G U49C U57G	< 1e-05					
C8G C16G U46G U56C	< 1e-05			< 1e-05	< 1e-05	
A6G G35U A64C U69G	< 1e-05	< 1e-05			< 1e-05	
C10G G40U	< 1e-05	< 1e-05	< 1e-05	< 1e-05	< 1e-05	
G7C U45G C61U G62C A64G	< 1e-05	< 1e-05	< 1e-05	< 1e-05	< 1e-05	
G9C	< 1e-05	< 1e-05	< 1e-05	< 1e-05	< 1e-05	
G9A	< 1e-05		< 1e-05	1.33e-05 ± 3e-06	2.61e-05 ± 1.5e-06	
G9C U30G G32U G44C C58U	< 1e-05					
C11G G32C G44A U55A C61U	< 1e-05				< 1e-05	
C8A G9A G13A G41U G44A U49G A52G G60C A64U	< 1e-05				< 1e-05	
A6G G29C A42G A48G U49G	< 1e-05				< 1e-05	
A6C G37C A39G G40U G41U	< 1e-05	< 1e-05	< 1e-05	< 1e-05		
G7A A64U	< 1e-05	< 1e-05	< 1e-05	< 1e-05	< 1e-05	
C10A G63C	< 1e-05	< 1e-05		< 1e-05	< 1e-05	
G7A A14C G32U G40A	< 1e-05			< 1e-05		
G7A G21U G37C A52G	< 1e-05	< 1e-05				
C10A A36U A39C U57G	< 1e-05					
G9U A33G U54C G60U	< 1e-05	< 1e-05	< 1e-05	< 1e-05		
